PMC4336329 (PLoS ONE, 2015)
In all, about 310,000 compounds went through this assay and about 14,000 (4.5%) showed an effect of 50% or more. The effect is printed as a negative number. Some of the results follow.

Molecular target: human ether-à-go-go-related gene (hERG) potassium channel (human, UniProt Q12809)
Test: primary screen, population patch clamp on CHO cells stably expressing hERG
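Note: peak tail current of the secondary pulse compared with the same well before compound.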

Chain of human ether-à-go-go-related gene (hERG) potassium channel (Q12809 whole entry, looked up): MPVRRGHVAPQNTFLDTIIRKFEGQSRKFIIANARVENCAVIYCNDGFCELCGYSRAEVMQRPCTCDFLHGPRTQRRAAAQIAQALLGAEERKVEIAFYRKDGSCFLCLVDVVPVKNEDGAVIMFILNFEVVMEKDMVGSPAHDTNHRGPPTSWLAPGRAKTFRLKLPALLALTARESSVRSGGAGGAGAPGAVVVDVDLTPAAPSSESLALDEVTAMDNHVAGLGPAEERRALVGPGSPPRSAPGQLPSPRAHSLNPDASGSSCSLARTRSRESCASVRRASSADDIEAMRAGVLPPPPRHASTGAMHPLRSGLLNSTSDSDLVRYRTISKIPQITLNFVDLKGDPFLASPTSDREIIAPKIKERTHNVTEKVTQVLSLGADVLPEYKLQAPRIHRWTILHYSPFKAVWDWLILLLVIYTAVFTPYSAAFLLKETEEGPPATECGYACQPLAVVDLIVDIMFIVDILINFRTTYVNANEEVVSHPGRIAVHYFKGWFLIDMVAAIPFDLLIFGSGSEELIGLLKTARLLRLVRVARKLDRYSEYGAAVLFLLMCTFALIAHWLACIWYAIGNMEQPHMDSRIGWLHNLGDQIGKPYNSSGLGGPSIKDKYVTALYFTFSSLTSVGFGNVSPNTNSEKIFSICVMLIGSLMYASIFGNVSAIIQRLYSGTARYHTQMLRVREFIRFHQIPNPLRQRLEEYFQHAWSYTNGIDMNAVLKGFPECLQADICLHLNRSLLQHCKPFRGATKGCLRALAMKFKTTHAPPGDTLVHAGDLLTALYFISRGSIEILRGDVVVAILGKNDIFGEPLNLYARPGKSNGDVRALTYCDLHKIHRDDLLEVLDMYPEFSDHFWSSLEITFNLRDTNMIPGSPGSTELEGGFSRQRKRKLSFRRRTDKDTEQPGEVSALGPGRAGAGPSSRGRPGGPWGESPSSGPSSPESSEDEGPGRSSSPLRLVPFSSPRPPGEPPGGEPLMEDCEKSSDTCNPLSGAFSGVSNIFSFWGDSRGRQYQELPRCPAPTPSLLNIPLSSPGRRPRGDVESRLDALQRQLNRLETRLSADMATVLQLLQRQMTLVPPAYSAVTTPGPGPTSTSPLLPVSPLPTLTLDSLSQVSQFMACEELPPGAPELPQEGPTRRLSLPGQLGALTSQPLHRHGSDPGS

Row | Compound | hERG current change (%, negative = inhibition) at 10uM
1 | NS(=O)(=O)c1ccc(CCNC(=O)C2CCN(S(=O)(=O)c3ccc(Br)s3)CC2)cc1 | -2.76%
2 | CCOC(=O)c1c(N)n(CCN2CCOCC2)c2nc3ccccc3nc12 | -39.2%
3 | CCOc1cc(N2CCOCC2)c(OCC)cc1NCC(=O)N1CCN(Cc2ccccc2)CC1.Cl | -24.5%
4 | Cc1cc(NC(=O)c2cc([N+](=O)[O-])cc([N+](=O)[O-])c2)no1 | 11.7%
5 | Cc1noc(C)c1COc1ccc(C(=O)OC(C)C(=O)Nc2ccc(S(=O)(=O)N3CCOCC3)cc2)cc1 (stereo not drawn) | 10.9%
6 | O=C1CNC(=O)/C1=C\N1CCN(C(c2ccccc2)c2ccccc2)CC1 | 5.73%
7 | Cc1cc(SCC(=O)NCCCN2CCCC2=O)nc2ccccc12 | 5.37%
8 | O=C(c1ccc(Cl)cc1)N1CCC(c2nc(-c3cccs3)no2)CC1 | -26.3%
9 | CC(C)OCC1Cn2c(nc3c2c(=O)n(C)c(=O)n3C)O1 (stereo not drawn) | 16.8%
10 | CCCC(=O)N(C)c1nnc(-c2ccc(OC)cc2)s1 | 11.3%
11 | CN(C)CCOC(=O)c1cn(Cc2ccccc2)c2ccccc12.Cl | -59.1%
12 | NS(=O)(=O)c1ccc(CCNC(=O)C2CCCN2C(=O)OCc2ccccc2)cc1 (stereo not drawn) | 18.6%
13 | Cc1cccc2cc(C#N)c(NCCCn3ccnc3)nc12 | -46.9%
14 | O=C(O)CC1=C(O)C(=O)N(c2ccccc2)C1c1ccccc1 (stereo not drawn) | 17.4%
15 | COc1cccc(-c2nnc(SCC(N)=O)n2-c2ccc(Cl)cc2)c1 | -9.7%
16 | O=C(Nc1ccc(NC(=O)c2ccccc2Cl)cc1)c1cccnc1 | 10.2%
17 | Cc1[nH]c2ccccc2c1/C=C(\C#N)C(=O)NCC1CCCO1 (stereo not drawn) | 11.9%
18 | CCOc1ccc(C(=O)N2CCN(c3cccc(Cl)c3)CC2)cc1 | -73.7%
19 | CN1C(=O)/C(=C/c2ccccc2OCc2ccccc2F)NC1=S | 16.1%
20 | COc1ccc(NS(=O)(=O)c2ccc(C)c(NC(=O)c3ccc(C)c(S(=O)(=O)N4CCOCC4)c3)c2)cc1 | 4.49%
21 | CCOc1ccc(CNCCN2CCCC2)cc1.O=C(O)C(=O)O | -63.9%
22 | COc1ccccc1N1CCN(S(=O)(=O)c2ccc3c(c2)oc(=O)n3C)CC1 | 26%

Row | Compound | hERG current change (%, negative = inhibition) at 10uM
23 | Cc1ccccc1S(=O)(=O)Nc1ncnc2sccc12 | 0.813%
24 | Cn1nnc(NCc2cc(Br)ccc2OCc2ccccc2F)n1 | -13.2%
25 | Cc1ccc(SCc2nc3ccccc3[nH]2)cc1 | -15.4%
26 | COc1ccc(-c2cn3c(C)c(C(=O)N4CCc5ccccc5C4)sc3n2)cc1 | -31.9%
27 | COc1ccc(Cn2c(=O)[nH]c3cc(C(=O)N4CCN(Cc5ccccc5)CC4)ccc3c2=O)cc1 | 1.77%
28 | C=CCc1ccc(OCCn2cccc2C=O)c(OC)c1 | -24.4%
29 | COCCCNC(=O)c1ccc(N(C)S(C)(=O)=O)cc1 | 11.7%
30 | CCOC(=O)C1CN(S(=O)(=O)c2ccc(C)cc2)c2cc(S(=O)(=O)CC)ccc2O1 (stereo not drawn) | -41%
31 | Cc1ccc(S(=O)(=O)N2CCSC2c2ccco2)cc1 (stereo not drawn) | -7.66%
32 | Cc1ccc(C)c(N(CC(=O)NC2CCCC2)C(=O)CCC(=O)Nc2cc(C)on2)c1 | 4.94%
33 | Cc1cc(C)cc(NC(=O)C2CCN(C(=O)c3cccs3)CC2)c1 | -12.4%
34 | COc1ccc(Br)cc1C1Nc2cccc3cccc(c23)N1 | 20.2%
35 | Cc1cc(C)nc(OC(C(=O)O)C(OCCc2ccccc2)(c2ccccc2)c2ccccc2)n1 (stereo not drawn) | 16.3%
36 | CCc1cccc(NC(=O)C2CCCN(c3ncnc4c3nc3n4CCCCC3)C2)c1 (stereo not drawn) | -46.4%
37 | Cc1cc(N2CCN(Cc3nc(-c4ccc(Cl)cc4)oc3C)CC2)cc(C)n1 | -68.8%
38 | CCN1C(=O)CC(N2CCN(C(c3ccccc3)c3ccccc3)CC2)C1=O (stereo not drawn) | -5.86%
39 | NC(=O)C1CCN(C(=O)COc2cccc3cccnc23)CC1 | 9.65%
40 | COc1ccccc1C1CC(c2cccs2)=NN1C(=O)CCC(=O)O (stereo not drawn) | 16%
41 | Cn1c(COc2ccc(Br)cc2)nnc1SC1CCc2ccccc2C1=O (stereo not drawn) | -26.6%
42 | Cc1ccc(C2CC(=O)C(C=NCCN3CCN(C(=S)Nc4ccc(F)cc4)CC3)=C(O)C2)cc1 (stereo not drawn) | -58.6%
43 | N#Cc1c(N)n(C2CCCCC2)c2nc3ccccc3nc12 | 13.6%
44 | CC1(C)CC(=O)C(C(C2=C(O)CC(C)(C)CC2=O)c2ccc(Cl)c([N+](=O)[O-])c2)C(=O)C1 (stereo not drawn) | 14.2%

Row | Compound | hERG current change (%, negative = inhibition) at 10uM
45 | N/C(CCS(=O)(=O)c1ccc(Cl)cc1)=N\OC(=O)c1ccccc1C(F)(F)F | -27.8%
46 | C/C(N)=C(/C#N)C(=O)CSc1ccccc1F | 16.9%
47 | CCOC(=O)C1=C(C)N=c2s/c(=C3\C(=O)Nc4ccccc43)c(=O)n2C1c1ccc2c(c1)OCO2 (stereo not drawn) | 5.4%
48 | C=Cc1ccc(C2=CC(=O)C[C@H](c3ccc(OC)cc3)C2)cc1 | 16.1%
49 | Cc1ccc(NCc2nnc(SCCN3CCCCC3)n2CC2CCCO2)cc1Cl (stereo not drawn) | -92.4%
50 | Cc1ccccc1Nc1n[nH]c(C)c1[N+](=O)[O-] | 0.936%
51 | CC(=O)c1ccc(N2CCN(C(=O)c3cc4c(s3)CCCC4)CC2)cc1 | -23.5%
52 | O=C(C1=C[C@H](c2ccccc2)C[C@H](OCCCCO)O1)N1CCN(Cc2ccc3c(c2)OCO3)CC1 | -41.8%
53 | O=C(CN1CC[C@@]2(O)CCCC[C@H]2[C@@H]1c1ccc(F)cc1)NCc1ccco1 | -15.5%
54 | Cc1sc(N)c(C#N)c1C | 5.26%
55 | CC1CCCCN1C(=O)Cn1cc(C=C2C(=O)N(C)C(=O)N(C)C2=O)c2ccccc21 (stereo not drawn) | 1.08%
56 | Cc1ccc(NC(=O)c2cccs2)cc1NC(=O)c1ccco1 | -2.23%
57 | CCOC(=O)c1c(C)[nH]c(C)c1S(=O)(=O)N1CCC(c2ccccc2)C1 (stereo not drawn) | -0.09%
58 | O=C(O)c1ccn(Cn2cnc3ccccc32)n1 | 6.64%
59 | Nc1c(C(=O)OC2CCCCC2)c2nc3ccccc3nc2n1CC1CCCO1 (stereo not drawn) | -63.7%
60 | O=C1NC(=S)S/C1=C\c1ccc(SCc2ccco2)o1 | 0.894%
61 | CC(=O)N1CCN(c2ccccc2NC(=O)COc2ccccc2C)CC1 | -14%
62 | COc1ccc(/C=C/C(=O)O)cc1S(=O)(=O)N1CCC(Cc2ccccc2)CC1 | 7.55%
63 | CCn1cc(CN2CCC(n3nccc3NC(=O)c3cccc(F)c3)CC2)c(C)n1 | -2.72%
64 | COc1ccc(/C(C)=N/N=C(N)N)c(OC)c1 | -3.29%
65 | COCCOC(=O)c1[nH]c2c(c1C)C(=O)CC(c1ccc(OC)cc1)C2 (stereo not drawn) | 3.95%
66 | NS(=O)(=O)OCCCCCc1ccccc1 | 3.87%

Row | Compound | hERG current change (%, negative = inhibition) at 10uM
67 | Cc1ccnc2nc(C(=O)OCCOc3ccc(Cl)cc3)nn12 | -56.2%
68 | Cc1ccc(/C=C2/C(=O)NC(=O)N(Cc3ccc(F)cc3)C2=O)o1 | 19.6%
69 | O=C(Nc1ccc2c(c1)C(=O)OC2)c1ccc(C(F)(F)F)cc1 | 17.3%
70 | COc1ccc(C(=O)NC(=S)N2CC(C)OC(C)C2)cc1OC (stereo not drawn) | 8.99%
71 | C=CCNC(=O)NC(=S)c1ccccc1 | -4.57%
72 | COC(=O)c1sccc1NC(=O)Nc1cc(C)cc(C)c1 | 12.1%
73 | COCc1c(C(=O)NC2CCCCC2)sc2cccc(F)c12 | -14.1%
74 | Cn1cc(CNC(=O)CC2C(=O)NCCN2CC(C)(C)C)cn1 (stereo not drawn) | 18.9%
75 | CN(Cc1cccs1)C(=O)CCc1ccc(S(=O)(=O)N2CCOCC2)cc1 | -6.63%
76 | COc1ccc(C(C)=O)cc1COC(=O)c1cnc(C)cn1 | 30.3%
77 | O=C(O)CSC1CC(=O)N(c2ccc(Cl)cc2)C1=O (stereo not drawn) | 12.8%
78 | C/C(=N\NC(=S)Nc1ccccc1C)C1Cc2ccccc2C(=O)O1 (stereo not drawn) | -22.9%
79 | Cc1cccc(OCC2Cn3c(nc4c3c(=O)[nH]c(=O)n4C)O2)c1 (stereo not drawn) | 9.52%
80 | CCOC(=O)c1[nH]cnc1C(=O)Nc1ccccn1 | -4.06%
81 | CCc1nn2c(N(C)CCO)cc(C)nc2c1-c1ccc(F)cc1 | -14.9%
82 | COc1ccc(CCn2c(N3CCN(C)CC3)nc3c2c(=O)[nH]c(=O)n3C)cc1 | -3.78%
83 | CCCCOc1ccc(-c2csc(N)n2)cc1[N+](=O)[O-] | 11.2%
84 | CN(C)/N=C/c1ccc(P(c2ccc(/C=N/N(C)C)o2)c2ccc(/C=N/N(C)C)o2)o1 | 7.19%
85 | CCCCn1c(N)c(N(CCC(C)C)C(=O)c2cccc(N3C(=O)c4ccccc4C3=O)c2)c(=O)[nH]c1=O | -11%
86 | CCN1CCCC1CN(Cc1cc2ccc(C)cc2[nH]c1=O)C(=S)Nc1cccc(OC)c1 (stereo not drawn) | -70.7%
87 | CCCCn1c(N)c(N(CCOC)C(=O)c2ccc(C)c(S(=O)(=O)N3CCCCC3)c2)c(=O)[nH]c1=O | 32.7%
